The values below come from PMC4336329 (PLoS ONE, 2015).

The campaign covered roughly 310,000 compounds. About 14,000 (4.5%) showed an effect of 50% or more. The effect is printed as a negative number. This is one part of the list.
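Note: peak tail current of the secondary pulse compared with the same well before compound.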

The target in the experiment is human ether-à-go-go-related gene (hERG) potassium channel (human, UniProt Q12809). Briefly: primary screen, population patch clamp on CHO cells stably expressing hERG.
human ether-à-go-go-related gene (hERG) potassium channel, sequence (Q12809 whole entry, looked up): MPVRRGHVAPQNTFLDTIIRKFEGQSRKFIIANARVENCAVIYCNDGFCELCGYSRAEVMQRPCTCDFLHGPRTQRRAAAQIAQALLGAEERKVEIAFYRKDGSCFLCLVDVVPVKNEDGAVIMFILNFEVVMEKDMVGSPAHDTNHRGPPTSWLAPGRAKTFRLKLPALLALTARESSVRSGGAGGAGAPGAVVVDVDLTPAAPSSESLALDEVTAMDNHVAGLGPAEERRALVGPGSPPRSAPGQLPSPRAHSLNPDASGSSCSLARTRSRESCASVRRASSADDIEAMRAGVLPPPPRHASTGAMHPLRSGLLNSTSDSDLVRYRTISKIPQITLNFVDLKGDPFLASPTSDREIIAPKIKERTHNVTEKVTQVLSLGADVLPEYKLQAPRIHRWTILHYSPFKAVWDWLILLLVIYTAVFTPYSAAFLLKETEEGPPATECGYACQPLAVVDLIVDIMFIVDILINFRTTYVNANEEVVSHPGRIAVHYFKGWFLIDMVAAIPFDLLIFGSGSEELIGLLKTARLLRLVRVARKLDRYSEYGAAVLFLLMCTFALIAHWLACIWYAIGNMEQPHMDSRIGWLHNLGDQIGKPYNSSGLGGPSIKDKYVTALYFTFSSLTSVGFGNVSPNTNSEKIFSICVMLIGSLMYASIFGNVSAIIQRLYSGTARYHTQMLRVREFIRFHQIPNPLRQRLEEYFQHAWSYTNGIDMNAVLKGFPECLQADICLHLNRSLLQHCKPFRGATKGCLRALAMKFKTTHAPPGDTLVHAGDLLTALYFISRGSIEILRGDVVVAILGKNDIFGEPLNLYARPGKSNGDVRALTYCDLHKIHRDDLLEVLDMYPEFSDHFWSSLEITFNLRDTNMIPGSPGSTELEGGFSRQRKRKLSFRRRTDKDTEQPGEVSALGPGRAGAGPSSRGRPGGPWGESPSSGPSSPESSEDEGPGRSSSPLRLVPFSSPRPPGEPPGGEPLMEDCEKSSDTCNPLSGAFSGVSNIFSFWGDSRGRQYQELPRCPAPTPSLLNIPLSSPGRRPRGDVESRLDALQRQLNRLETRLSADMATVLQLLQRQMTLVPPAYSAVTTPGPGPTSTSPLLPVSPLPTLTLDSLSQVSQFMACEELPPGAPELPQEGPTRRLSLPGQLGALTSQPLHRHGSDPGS
Turning to `COC(=O)c1cc(-c2ccc(NC(C)=O)cc2)nc2ccccc12`, the “hERG current change (%, negative = inhibition) at 10uM” value came out at 6.01%.

Regarding `CN(C)c1nc(Nc2ccc(F)cc2)nc(Oc2ccc(F)cc2)n1`, the “hERG current change (%, negative = inhibition) at 10uM” value is reported as 7.97%.

As to `Cc1ccc(NC(=O)Nc2cccnc2)cc1NC(=O)Nc1cccnc1`, the “hERG current change (%, negative = inhibition) at 10uM” value is 11.4%.

In the case of `Cc1ccc(CCN2CC(C(=O)NCCN(C)C)CC2=O)cc1` (stereo not shown), the “hERG current change (%, negative = inhibition) at 10uM” value is on record as 16.5%.

Turning to `COc1cc(F)cc(-c2ccc3c(c2)c(-c2cccs2)c(-c2cc(OC)cc(OC)c2)n3C)c1`, the “hERG current change (%, negative = inhibition) at 10uM” value amounted to 8.79%.

For `COc1ccccc1CC(=O)Nc1ccc(-c2nnc(-c3ccco3)o2)cc1`, the “hERG current change (%, negative = inhibition) at 10uM” value is 1.45%.

For `O=C(CC1N=C2c3ccccc3N=C(SCc3ccc(F)cc3)N2C1=O)NCc1ccco1` (stereo not shown), the “hERG current change (%, negative = inhibition) at 10uM” value is -73.9%.

In the case of `Cc1ccc(NC(=O)CNc2ccccc2CN(C)C2CCCCC2)cc1`, the “hERG current change (%, negative = inhibition) at 10uM” value was -59.1%.

Regarding `Cc1cc(F)ccc1S(=O)(=O)Nc1ncnc2sc3c(c12)CCC3`, the “hERG current change (%, negative = inhibition) at 10uM” value was 13.1%.

`CC(=O)NCCn1c(SCC(=O)NCc2ccco2)nc2ccccc2c1=O`: the “hERG current change (%, negative = inhibition) at 10uM” value was -23.9%.

As to `CCC1CCCCN1C1Sc2ccc(C(=O)OC)cc2NC1=O` (stereo not shown), the “hERG current change (%, negative = inhibition) at 10uM” value was -13.1%.

`O=C(CCSc1ccc(Cl)cc1)NC1CCCC1`: the “hERG current change (%, negative = inhibition) at 10uM” value is given as 7.05%.

As to `O=C(c1ccccc1)N(Cc1ccco1)C1CCS(=O)(=O)C1` (stereo not shown), the “hERG current change (%, negative = inhibition) at 10uM” value is reported as 15.8%.

As for `COc1ccc(-c2cc(C(=O)NCc3ccc(Cl)cc3)no2)cc1OC`, the “hERG current change (%, negative = inhibition) at 10uM” value is reported as 6.78%.

For `O=C(NCCc1c[nH]c2ccccc12)C(F)(F)C(F)F`, the “hERG current change (%, negative = inhibition) at 10uM” value is -0.143%.

As for `COc1ccc(/C=C(\NC(=O)c2ccc([N+](=O)[O-])cc2)C(=O)N2CCOCC2)cc1`, the “hERG current change (%, negative = inhibition) at 10uM” value was -75%.

Take `O=C(Nc1ccc(S(=O)(=O)NCC2CCCO2)cc1)c1ccc(F)cc1` (stereo not shown): the “hERG current change (%, negative = inhibition) at 10uM” value is 17.5%.

Turning to `O=c1[nH]nc(-c2ccccc2)cc1-c1ccccc1`, the “hERG current change (%, negative = inhibition) at 10uM” value is reported as -17.5%.

As for `CCOc1ccccc1C1c2[nH]c3ccccc3c2C[C@H]2C(=O)N(C3CC3)CC(=O)N12` (stereo partly shown), the “hERG current change (%, negative = inhibition) at 10uM” value was -27.8%.

For `COC(=O)CCC(C)N1CCC(Oc2ccc(C(=O)N3CCCC3)cc2)CC1` (stereo not shown), the “hERG current change (%, negative = inhibition) at 10uM” value is recorded as -11%.

With `CCCn1nc(C(=O)NCCN2CCOCC2)c2ccccc2c1=O`, the “hERG current change (%, negative = inhibition) at 10uM” value is recorded as 9.71%.

Turning to `Cc1occc1C(=O)NCc1nc(-c2ccc(Cl)cc2)no1`, the “hERG current change (%, negative = inhibition) at 10uM” value came to 11%.

With `CC(C)O.CCCC1(CCC)NC(=O)N(CC(=O)N2CCN(C(=O)c3ccco3)CC2)C1=O`, the “hERG current change (%, negative = inhibition) at 10uM” value is given as 5%.

With `CN(C(=S)NC(=O)CCCOc1ccc(Cl)cc1Cl)c1ccccc1`, the “hERG current change (%, negative = inhibition) at 10uM” value is on record as -2.14%.

As to `COC(=O)c1cc(NC(=O)CC2SC(=Nc3ccccc3)N(CCc3c[nH]c4ccccc34)C2=O)cc(C(=O)OC)c1` (stereo not shown), the “hERG current change (%, negative = inhibition) at 10uM” value was 12%.

Regarding `COc1ccc(/C=N/NC(=O)c2cc(C)oc2C)cc1OCc1ccccc1`, the “hERG current change (%, negative = inhibition) at 10uM” value stood at 7.58%.

Consider `CN(CC1CCCO1)S(=O)(=O)c1ccc(C(=O)Nc2nnc(-c3ccccc3)o2)cc1` (stereo not shown), for which the “hERG current change (%, negative = inhibition) at 10uM” value was 16.4%.

Turning to `O=C(O)C(=O)O.O=[N+]([O-])c1cccc(CN2CCN(Cc3ccco3)CC2)c1`, the “hERG current change (%, negative = inhibition) at 10uM” value is -4.34%.

As to `Cc1nn(CC(=O)O)c(C)c1N`, the “hERG current change (%, negative = inhibition) at 10uM” value is 3.42%.

Regarding `COc1ccc(/C=C/C(=O)NCC(=O)N/N=C/c2cc(Br)ccc2OC)cc1`, the “hERG current change (%, negative = inhibition) at 10uM” value turned out to be 7.98%.

Consider `Cc1cnc(NC(=O)CSc2nc3ccccc3c(=O)[nH]2)s1`, for which the “hERG current change (%, negative = inhibition) at 10uM” value is listed as -7.72%.

For `CCCn1cc(SCC(=O)NCC2CCCO2)c2ccccc21` (stereo not shown), the “hERG current change (%, negative = inhibition) at 10uM” value is listed as 4.17%.

Turning to `CCC(=O)Nc1nonc1-c1nc2ccccc2n1N(C(=O)CC)C(=O)CC`, the “hERG current change (%, negative = inhibition) at 10uM” value was determined as 11.4%.

In the case of `COc1ccccc1NC(=O)c1ccc(S(=O)(=O)N(C)c2ccccc2)cc1`, the “hERG current change (%, negative = inhibition) at 10uM” value was -3.47%.

As to `COCCCN1C(=O)c2ccc(C(=O)OCC(=O)N(CCC#N)c3cc(C)cc(C)c3)cc2C1=O`, the “hERG current change (%, negative = inhibition) at 10uM” value was -20.5%.

Take `Cc1[nH]nc2c1C1(CCN(C(=O)OCc3ccccc3)CC1)C(C#N)=C(N)O2`: the “hERG current change (%, negative = inhibition) at 10uM” value is -29.8%.

Consider `CCOC(=O)c1c(NC(=O)COc2ncnc3ccccc23)sc(C(C)=O)c1C`, for which the “hERG current change (%, negative = inhibition) at 10uM” value is listed as -5.43%.

Turning to `Cc1cc([N+](=O)[O-])cc(C)c1OCC(=O)N/N=C/c1ccc(OC(=O)c2ccccc2Br)cc1`, the “hERG current change (%, negative = inhibition) at 10uM” value is on record as 4.23%.

As for `N#Cc1ccc(/C=N/N=C(N)N)cc1`, the “hERG current change (%, negative = inhibition) at 10uM” value is given as -23.6%.

On to `C=CCN1CCN(C(CCC)c2nnnn2Cc2ccco2)CC1` (stereo not shown), for which the “hERG current change (%, negative = inhibition) at 10uM” value was 10%.

With `COc1ccc(N/N=C(\C=N\O)C(=O)c2ccc(OC)cc2)cc1`, the “hERG current change (%, negative = inhibition) at 10uM” value was 1.78%.

In the case of `Cc1cccc(NC(=O)Cn2c([N+](=O)[O-])cnc2C)c1C`, the “hERG current change (%, negative = inhibition) at 10uM” value is reported as 2.49%.

For `Cc1cc2cc(C)c3nnc(SCC(=O)NCc4ccco4)n3c2cc1C`, the “hERG current change (%, negative = inhibition) at 10uM” value is -5.73%.

For `Cc1nn(CCc2nn[nH]n2)c2nc(-c3ccc(C4CCCCC4)cc3)cc(C(F)(F)F)c12`, the “hERG current change (%, negative = inhibition) at 10uM” value came to 29.3%.

Take `CCc1ccc(CNc2ccc3c(c2)ncn3C(C)(C)C)cc1`: the “hERG current change (%, negative = inhibition) at 10uM” value is on record as -36.1%.

Regarding `Cl.Oc1ccc(Cl)cc1CNCC1CCCCC1`, the “hERG current change (%, negative = inhibition) at 10uM” value is on record as 3.14%.

Consider `COC(=O)c1ccc(C2/C(=C(/O)c3ccc4c(c3)CC(C)O4)C(=O)C(=O)N2Cc2cccnc2)cc1` (stereo not shown), for which the “hERG current change (%, negative = inhibition) at 10uM” value is reported as 8.97%.

As for `O=C(NCC(=O)N(c1cccnc1)C(C(=O)NC1CCCC1)c1ccco1)c1cccs1` (stereo not shown), the “hERG current change (%, negative = inhibition) at 10uM” value is 4.81%.

`COc1cc(/C=N/NC(=O)c2cc(C34CC5CC(CC(C5)C3)C4)[nH]n2)ccc1O`: the “hERG current change (%, negative = inhibition) at 10uM” value was -26.6%.

As for `Cc1cccc(NC(=O)c2cccc(NC(=O)c3ccccc3)c2)n1`, the “hERG current change (%, negative = inhibition) at 10uM” value is recorded as -36.9%.

Take `Cc1cc(/C=C(\C#N)C(=O)O)c(C)n1CCC(C)C`: the “hERG current change (%, negative = inhibition) at 10uM” value amounted to 10.5%.

Take `c1c2c(cc3sc(N4CCOCC4)nc13)OCCO2`: the “hERG current change (%, negative = inhibition) at 10uM” value is recorded as -6.66%.

Take `Cc1ccccc1-n1c(-c2cccnc2)n[nH]c1=S`: the “hERG current change (%, negative = inhibition) at 10uM” value was determined as 18.1%.

As to `Cc1ccc([N+](=O)[O-])cc1Nc1nc(N2CCCC2)nc(N2CCCC2)n1`, the “hERG current change (%, negative = inhibition) at 10uM” value amounted to 19.2%.

As for `COC(=O)c1noc(-c2ccc(C)cc2)n1`, the “hERG current change (%, negative = inhibition) at 10uM” value is reported as -3.95%.
